Test results: the supplement of paper PMC3334620
The full ranking holds about 33,000 sequences; the median of “E-score (-0.5 to 0.5)” is about -0.053, and the highest 2% start at about 0.37. The list shows a part of the results.

biological target: Hap1 (UniProt P0CE41); experiment: PBM E-score (8-mer binding enrichment) (E-score (-0.5 to 0.5)); higher = stronger / more preferred TF binding; most listed sequences are background and not binding sites; conditions: protein concentration: 200 nM; construct: GST-DNA-binding domain
Procedure, shortened: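 GST-tagged yeast TFs (full-length or DNA-binding domain) were made by PURExpress in vitro transcription/translation and applied at about 100-200 nM to universal all-10-mer Agilent arrays. The arrays were made double-stranded by primer extension, on fresh or once-stripped slides. Bound protein was detected with fluorescent anti-GST, and scans were normalised with masliner. Each ungapped eight-base word, pooled with its reverse complement, received an E-score (modified Wilcoxon-Mann-Whitney statistic) from the Universal PBM Analysis Suite.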

UniProt P0CE41, sequence (P0CE41 whole entry, the tested form may be a part): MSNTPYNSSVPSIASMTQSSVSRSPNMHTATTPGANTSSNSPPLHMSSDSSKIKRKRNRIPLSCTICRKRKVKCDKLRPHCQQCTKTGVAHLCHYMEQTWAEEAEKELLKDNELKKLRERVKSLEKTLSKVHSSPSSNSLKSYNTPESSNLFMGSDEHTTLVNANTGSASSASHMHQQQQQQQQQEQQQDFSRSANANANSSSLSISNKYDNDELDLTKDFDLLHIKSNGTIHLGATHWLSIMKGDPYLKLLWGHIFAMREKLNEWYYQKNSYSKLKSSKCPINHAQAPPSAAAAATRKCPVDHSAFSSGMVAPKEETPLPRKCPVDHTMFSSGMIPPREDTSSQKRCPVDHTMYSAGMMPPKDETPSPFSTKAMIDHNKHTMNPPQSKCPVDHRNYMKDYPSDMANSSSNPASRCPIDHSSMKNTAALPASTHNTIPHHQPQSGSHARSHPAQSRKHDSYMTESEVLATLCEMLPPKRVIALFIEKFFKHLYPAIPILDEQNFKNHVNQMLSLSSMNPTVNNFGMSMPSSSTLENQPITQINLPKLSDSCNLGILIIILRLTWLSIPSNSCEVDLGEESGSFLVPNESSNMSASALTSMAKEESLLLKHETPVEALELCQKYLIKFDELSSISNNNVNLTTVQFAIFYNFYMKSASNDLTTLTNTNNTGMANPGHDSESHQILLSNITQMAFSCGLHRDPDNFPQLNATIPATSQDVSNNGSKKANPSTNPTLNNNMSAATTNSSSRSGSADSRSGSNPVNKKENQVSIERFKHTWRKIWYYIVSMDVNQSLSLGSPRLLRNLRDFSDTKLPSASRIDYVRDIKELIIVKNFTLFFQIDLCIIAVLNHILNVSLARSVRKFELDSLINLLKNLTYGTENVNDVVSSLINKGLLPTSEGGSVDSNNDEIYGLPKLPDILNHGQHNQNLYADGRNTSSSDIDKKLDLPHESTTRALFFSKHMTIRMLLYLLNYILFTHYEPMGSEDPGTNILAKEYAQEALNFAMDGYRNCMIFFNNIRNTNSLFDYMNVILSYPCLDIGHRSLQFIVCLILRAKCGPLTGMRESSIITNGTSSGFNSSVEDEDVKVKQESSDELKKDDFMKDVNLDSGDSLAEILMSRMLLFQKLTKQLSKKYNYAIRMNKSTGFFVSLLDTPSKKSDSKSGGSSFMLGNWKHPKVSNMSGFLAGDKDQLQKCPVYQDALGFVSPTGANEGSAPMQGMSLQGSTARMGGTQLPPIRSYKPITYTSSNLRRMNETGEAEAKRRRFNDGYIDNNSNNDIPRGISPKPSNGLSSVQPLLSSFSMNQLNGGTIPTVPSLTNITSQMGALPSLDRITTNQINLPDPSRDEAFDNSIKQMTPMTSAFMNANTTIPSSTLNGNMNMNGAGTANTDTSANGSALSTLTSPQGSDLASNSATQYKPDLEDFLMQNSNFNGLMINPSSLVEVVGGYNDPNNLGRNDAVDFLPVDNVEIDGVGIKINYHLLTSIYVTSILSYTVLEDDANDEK

**Q.** For CCACAGCC, which “PBM E-score” value is on record?
**A.** -0.0703

**Q.** CCCACTGA was tested. Which “PBM E-score” value did it give?
**A.** -0.118

**Q.** GTGACATA was tested. Which “PBM E-score” value did it give?
**A.** -0.0913

**Q.** Which “PBM E-score” value does the source give for CTCCAGAG here?
**A.** -0.0749

**Q.** With CCTCCTAG as the sequence, how does the “PBM E-score” value read?
**A.** -0.237

**Q.** With AGGACTGG as the sequence, how does the “PBM E-score” value read?
**A.** -0.218

**Q.** How did the “PBM E-score” value turn out when ACCAAGGG was run?
**A.** -0.173

**Q.** How did the “PBM E-score” value turn out when AATTCAAA was run?
**A.** -0.184

**Q.** For GGGTGTAA, which “PBM E-score” value is on record?
**A.** 0.143

**Q.** GGTCGCGA was tested. Which “PBM E-score” value did it give?
**A.** 0.213

**Q.** With AGGGTGCC as the sequence, how does the “PBM E-score” value read?
**A.** -0.108

**Q.** For ATAGTCAA, which “PBM E-score” value is on record?
**A.** -0.194

**Q.** For GGACATGA, which “PBM E-score” value is on record?
**A.** 0.272

**Q.** With ATCCTAAA as the sequence, how does the “PBM E-score” value read?
**A.** -0.135

**Q.** Which “PBM E-score” value does the source give for ACAACTAA here?
**A.** -0.119

**Q.** ACTGACAA was tested. Which “PBM E-score” value did it give?
**A.** -0.265

**Q.** How did the “PBM E-score” value turn out when GCAAGTCA was run?
**A.** -0.0957

**Q.** Which “PBM E-score” value does the source give for ACCTAATA here?
**A.** -0.0382

**Q.** With TCGGGGCA as the sequence, how does the “PBM E-score” value read?
**A.** 0.299

**Q.** TCATCGGA was tested. Which “PBM E-score” value did it give?
**A.** 0.316

**Q.** How did the “PBM E-score” value turn out when GTGCTTAA was run?
**A.** 0.0585

**Q.** CCAGAAGG was tested. Which “PBM E-score” value did it give?
**A.** -0.165

**Q.** Which “PBM E-score” value does the source give for ACATTTTC here?
**A.** 0.12

**Q.** For GACCTCCC, which “PBM E-score” value is on record?
**A.** -0.028

**Q.** Which “PBM E-score” value does the source give for CGCTAACC here?
**A.** 0.127

**Q.** How did the “PBM E-score” value turn out when TAGGATAA was run?
**A.** -0.148

**Q.** Which “PBM E-score” value does the source give for ATCGTCAC here?
**A.** -0.102

**Q.** Which “PBM E-score” value does the source give for AAATAAGG here?
**A.** 0.0258

**Q.** AGCTCCAC was tested. Which “PBM E-score” value did it give?
**A.** -0.043

**Q.** Which “PBM E-score” value does the source give for AGGAAGAC here?
**A.** -0.309

**Q.** For ACACGATG, which “PBM E-score” value is on record?
**A.** -0.172

**Q.** For GGTATAAC, which “PBM E-score” value is on record?
**A.** 0.0793

**Q.** With ATCGGCGC as the sequence, how does the “PBM E-score” value read?
**A.** 0.343

**Q.** How did the “PBM E-score” value turn out when ACGCCTCA was run?
**A.** -0.307

**Q.** For GCATTAAC, which “PBM E-score” value is on record?
**A.** 0.216

**Q.** How did the “PBM E-score” value turn out when AGTTTTAG was run?
**A.** -0.0919

**Q.** Which “PBM E-score” value does the source give for GTTACTTA here?
**A.** -0.0394

**Q.** How did the “PBM E-score” value turn out when GCGCCCGA was run?
**A.** 0.353

**Q.** AAGACGCA was tested. Which “PBM E-score” value did it give?
**A.** 0.106

**Q.** How did the “PBM E-score” value turn out when TAGCGACA was run?
**A.** -0.0862

**Q.** With CACCAGAG as the sequence, how does the “PBM E-score” value read?
**A.** -0.248

**Q.** CGACATAA was tested. Which “PBM E-score” value did it give?
**A.** -0.0157

**Q.** Which “PBM E-score” value does the source give for ACCGATGG here?
**A.** 0.0307

**Q.** With AGCTATAC as the sequence, how does the “PBM E-score” value read?
**A.** -0.111

**Q.** How did the “PBM E-score” value turn out when GAAGTTGC was run?
**A.** -0.2

**Q.** With CTCGCAGC as the sequence, how does the “PBM E-score” value read?
**A.** -0.0264

**Q.** GTAGGCCA was tested. Which “PBM E-score” value did it give?
**A.** -0.153

**Q.** With AGATGCTC as the sequence, how does the “PBM E-score” value read?
**A.** 0.0626

**Q.** With CAGTGGCG as the sequence, how does the “PBM E-score” value read?
**A.** -0.154

**Q.** For ACGTGTTG, which “PBM E-score” value is on record?
**A.** -0.119

**Q.** How did the “PBM E-score” value turn out when CGTCCCAG was run?
**A.** -0.0968

**Q.** For AGGACTCA, which “PBM E-score” value is on record?
**A.** -0.259

**Q.** For AACCTGAC, which “PBM E-score” value is on record?
**A.** -0.3

**Q.** AGACCTCA was tested. Which “PBM E-score” value did it give?
**A.** -0.391

**Q.** For AATGTCCT, which “PBM E-score” value is on record?
**A.** -0.144

**Q.** Which “PBM E-score” value does the source give for ATGGCTCA here?
**A.** -0.343

**Q.** How did the “PBM E-score” value turn out when AGGTACTC was run?
**A.** -0.145

**Q.** With ACCTGCGG as the sequence, how does the “PBM E-score” value read?
**A.** 0.29

**Q.** For CACGATCA, which “PBM E-score” value is on record?
**A.** -0.118

**Q.** Which “PBM E-score” value does the source give for CGCATGCC here?
**A.** 0.1

**Q.** With AGCTGAAA as the sequence, how does the “PBM E-score” value read?
**A.** 0.112

**Q.** How did the “PBM E-score” value turn out when GAAGTTTA was run?
**A.** 0.074

**Q.** Which “PBM E-score” value does the source give for AGTCGGCG here?
**A.** 0.159

**Q.** With ACTCGTGC as the sequence, how does the “PBM E-score” value read?
**A.** -0.124

**Q.** GAGGGATC was tested. Which “PBM E-score” value did it give?
**A.** 0.0369

**Q.** How did the “PBM E-score” value turn out when ACCTTAGT was run?
**A.** -0.217

**Q.** How did the “PBM E-score” value turn out when CCCAACGA was run?
**A.** -0.0546

**Q.** With GACGACTC as the sequence, how does the “PBM E-score” value read?
**A.** -0.101

**Q.** TAAGCAGA was tested. Which “PBM E-score” value did it give?
**A.** 0.015

**Q.** Which “PBM E-score” value does the source give for CCAACGCA here?
**A.** -0.0331

**Q.** With CCAATGTC as the sequence, how does the “PBM E-score” value read?
**A.** -0.15

**Q.** Which “PBM E-score” value does the source give for ACCGGACC here?
**A.** 0.397

**Q.** How did the “PBM E-score” value turn out when CATGGCTC was run?
**A.** -0.11

**Q.** Which “PBM E-score” value does the source give for CCCAGGGC here?
**A.** -0.121

**Q.** For GGTCAAAA, which “PBM E-score” value is on record?
**A.** -6e-05

**Q.** How did the “PBM E-score” value turn out when CATGTGAA was run?
**A.** -0.0737

**Q.** GACTCTGC was tested. Which “PBM E-score” value did it give?
**A.** -0.13

**Q.** Which “PBM E-score” value does the source give for GGAATGTA here?
**A.** 0.215

**Q.** For CTACCTAA, which “PBM E-score” value is on record?
**A.** -0.14

**Q.** Which “PBM E-score” value does the source give for AGCTGGAC here?
**A.** -0.13

**Q.** For AAAACTAC, which “PBM E-score” value is on record?
**A.** 0.124

**Q.** How did the “PBM E-score” value turn out when AACAGGAT was run?
**A.** -0.265

**Q.** Which “PBM E-score” value does the source give for CTTTGGCA here?
**A.** -0.279

**Q.** How did the “PBM E-score” value turn out when GGGCCAAC was run?
**A.** 0.00168

**Q.** For AAAAGGAA, which “PBM E-score” value is on record?
**A.** 0.0913

**Q.** CATGGTGA was tested. Which “PBM E-score” value did it give?
**A.** -0.0558
